Each structure is given as a SMILES string. Screen size: about 310,000 compounds; about 14,000 (4.5%) showed an effect of 50% or more. Effects have a minus sign here. The list shows a part of the results.
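Further: peak tail current of the secondary pulse compared with the same well before compound.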

The test deals with human ether-à-go-go-related gene (hERG) potassium channel (human, UniProt Q12809). Briefly: primary screen, population patch clamp on CHO cells stably expressing hERG.
Sequence of human ether-à-go-go-related gene (hERG) potassium channel (Q12809 whole entry, looked up): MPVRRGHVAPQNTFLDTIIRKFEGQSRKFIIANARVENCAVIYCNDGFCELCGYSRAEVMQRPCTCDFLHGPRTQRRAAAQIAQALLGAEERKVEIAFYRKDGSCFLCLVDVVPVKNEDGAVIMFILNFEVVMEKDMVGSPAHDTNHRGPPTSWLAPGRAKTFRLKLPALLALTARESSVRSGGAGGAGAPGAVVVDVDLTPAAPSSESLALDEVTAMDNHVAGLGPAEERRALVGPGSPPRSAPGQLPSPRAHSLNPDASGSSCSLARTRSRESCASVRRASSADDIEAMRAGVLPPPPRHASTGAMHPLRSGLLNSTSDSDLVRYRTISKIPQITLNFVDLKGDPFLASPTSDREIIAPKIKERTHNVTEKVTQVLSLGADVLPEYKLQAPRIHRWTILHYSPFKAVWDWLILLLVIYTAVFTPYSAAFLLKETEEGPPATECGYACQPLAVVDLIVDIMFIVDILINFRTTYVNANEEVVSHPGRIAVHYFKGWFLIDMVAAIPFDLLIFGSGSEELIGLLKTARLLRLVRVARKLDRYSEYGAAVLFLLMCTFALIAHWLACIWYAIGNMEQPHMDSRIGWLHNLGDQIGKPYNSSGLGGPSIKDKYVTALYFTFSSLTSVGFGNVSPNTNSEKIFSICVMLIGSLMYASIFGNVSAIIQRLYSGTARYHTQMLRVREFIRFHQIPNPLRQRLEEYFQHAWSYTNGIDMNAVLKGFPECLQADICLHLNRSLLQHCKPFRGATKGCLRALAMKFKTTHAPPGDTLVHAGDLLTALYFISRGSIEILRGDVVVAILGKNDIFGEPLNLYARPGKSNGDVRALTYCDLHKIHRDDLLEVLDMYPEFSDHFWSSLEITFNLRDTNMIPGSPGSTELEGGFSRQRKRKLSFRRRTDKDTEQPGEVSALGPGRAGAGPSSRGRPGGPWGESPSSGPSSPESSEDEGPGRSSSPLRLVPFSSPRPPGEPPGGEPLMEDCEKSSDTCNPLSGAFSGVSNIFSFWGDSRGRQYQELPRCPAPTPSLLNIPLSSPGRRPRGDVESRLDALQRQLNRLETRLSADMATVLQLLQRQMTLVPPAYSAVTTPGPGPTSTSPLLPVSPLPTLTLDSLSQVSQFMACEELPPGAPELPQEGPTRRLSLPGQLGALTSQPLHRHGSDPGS
On to `CCOC(=O)NC1C=CS(=O)(=O)C1` (stereo not drawn), for which the “hERG current change (%, negative = inhibition) at 10uM” value stood at 13.8%.
For the molecule `O=C(Nc1nc(-c2ccc(F)cc2)cs1)c1cccnc1`, the “hERG current change (%, negative = inhibition) at 10uM” value is 10.1%.
Take `COCCCNC(NC(=O)c1ccc(Br)cc1)C(Cl)(Cl)Cl` (stereo not drawn): the “hERG current change (%, negative = inhibition) at 10uM” value was -7.58%.
The value for `COC(=O)c1cc(NC2c3ccccc3C(=O)N2Cc2ccco2)cc(C(=O)OC)c1` (stereo not drawn) was -1.56%; that for `Cc1ccc(-c2n[nH]c(=S)n2/N=C/c2cccs2)cc1` was 24.6%.
With `COC(=O)CSc1nnc(-c2sc3cc(OC)ccc3c2Cl)n1C`, the “hERG current change (%, negative = inhibition) at 10uM” value was -11.5%.
As for `CCOc1ccc(-c2cccc(NC(=O)c3ccco3)c2)nn1`, the “hERG current change (%, negative = inhibition) at 10uM” value is -17.5%.
Consider `O=C(Nc1ccccc1OC(F)F)c1ccc(Br)o1`, for which the “hERG current change (%, negative = inhibition) at 10uM” value is listed as -20.9%.
Next, `CCN1C(=O)CSc2ccc(C(=O)NCc3ccccc3)cc21`: 4.58%; `Cc1cc(N2CCOCC2)cc(C)[n+]1[O-]`: -12.6%.
Consider `CC1=C(C)CC(C(=O)Nc2ccc(C(N)=O)cc2)C(C(=O)O)C1` (stereo not drawn), for which the “hERG current change (%, negative = inhibition) at 10uM” value came to 14.9%.
Next, `COc1ccc(NC(=O)Cn2c(-c3ccccc3)cc(C(C)=O)c2C)c(OC)c1`: -22.6%; `CCCOc1ccc(/C=C/C(=O)N2CCN(c3ccccn3)CC2)cc1`: -11.6%; `Cc1ccc(OCCCCn2ccnc2)c([N+](=O)[O-])c1`: -51.5%.
Regarding `O=C1OC(Nc2ccc(Cl)cn2)c2ccccc21` (stereo not drawn), the “hERG current change (%, negative = inhibition) at 10uM” value is listed as -0.645%.
The value for `CC1CC(Nc2ccccc2)=NC1(C)C` (stereo not drawn) was 21.1%.
Next, `Cc1ccc2oc(C(=O)NCC(c3ccco3)N3CCCC3)c(C)c2c1` (stereo not drawn): -33.8%; `Cn1cc(CN2CCC(Oc3ccc(C(=O)N4CCCC4)cc3)CC2)cn1`: 9.86%.
Next, `O=C(/C=C/c1ccccc1)NCc1cccnc1`: 18.5%; `O=S(=O)(Nc1ccc(O)c(CN2CCCCC2)c1)c1ccccc1`: -2.35%.
On to `COc1cc2nc(N3CCN(C(=O)OCc4ccccc4)[C@H](C(=O)NC(C)(C)C)C3)nc(N)c2cc1OC.O`, for which the “hERG current change (%, negative = inhibition) at 10uM” value is -13.1%.
The value for `CCCCOc1ccc(-c2n[nH]c(=S)n2Cc2ccccc2)cc1` was 11.7%; that for `COc1ccc(N2CCN(C(=O)c3ccc(Br)o3)CC2)cc1` was -17%.
Consider `O=c1oc(-c2ccccc2Cl)nc2ccsc12`, for which the “hERG current change (%, negative = inhibition) at 10uM” value is 0.56%.
The value for `COc1cccc(NC(=S)N2CCC(NC(=O)C3CCCCC3)CC2)c1` was 17.6%; that for `NCCCN1CCOCC1` was 0.633%; that for `O=C(Cc1ccc(Cl)cc1)Oc1cccc2cccnc12` was 3.96%.
The value for `COc1ccc(CCNC(=O)c2cc(C)oc2C)cc1` was 11.3%; that for `COc1cc(-c2nc(-c3ccccn3)no2)cc(OC)c1OC` was 3.76%.
In the case of `CCN(CC)C(=O)c1cn(CCC#N)nc1-c1ccc2c(c1)OCCO2`, the “hERG current change (%, negative = inhibition) at 10uM” value stood at 15.7%.
As to `COc1cccc(C=Nc2cc(C)cc(C)c2)c1O`, the “hERG current change (%, negative = inhibition) at 10uM” value is given as -1.33%.
Next, `O=C(CN1C(=O)S/C(=C\c2cc(Cl)c(O)c(Cl)c2)C1=O)Nc1ccccc1`: 34.4%; `COc1cc(NC(=O)C2CC(=O)N(CCc3ccc(F)cc3)C2)cc(OC)c1OC` (stereo not drawn): 2.1%.
Next, `CCOC(=O)c1ccc(S(=O)(=O)NNC(=O)COc2ccc(C)cc2)cc1`: 20.7%; `CN(C)c1ccc(-c2ccc([C@H]3[C@@H]4C=CCC[C@@]4(C)C(=O)N3Cc3ccccc3)c(F)c2)cc1`: 8.03%; `Cc1nnn(C23CC4CC(CC(CC(=O)Nc5cccc(F)c5)(C4)C2)C3)n1`: -20.3%.
The value for `Cc1ccc(-c2csc(N(CCO)CCCn3c(C(F)(F)F)nc4cc(C(F)(F)F)ccc43)n2)cc1` was 12.7%.
Take `CC1CCCC(C)N1C(=O)COC(=O)c1n[nH]c(=O)c2ccccc12` (stereo not drawn): the “hERG current change (%, negative = inhibition) at 10uM” value was -6.1%.
The value for `Cc1cccc(NC(=O)CCN2C(=O)c3ccccc3C2=O)c1` was -8.68%.
`CC(Sc1ccc(Cl)cc1)C(=O)Nc1ccccc1-c1ccccc1` (stereo not drawn): the “hERG current change (%, negative = inhibition) at 10uM” value came out at 11.6%.
Next, `CC(C)c1onc(C(=O)NCc2ccccc2)c1[N+](=O)[O-]`: 7.38%; `COc1ccc(C(=O)COC(=O)c2cnc(C)cn2)c(OC)c1`: -18.7%.
Next, `Cc1csc2c(N3CCN(S(=O)(=O)c4ccc(Cl)cc4)CC3)ncnc12`: 16.4%; `COc1cccc(CNC(=O)C2CCN(S(=O)(=O)N3CCC4(CC3)OCCO4)CC2)c1`: -9.91%; `CC1(C)CC(=O)C(C=Nc2ccc(C(=O)c3ccccc3)cc2N=CC2=C(O)CC(C)(C)CC2=O)=C(O)C1`: -18.5%.

These data come from publication PMC4336329 (PLoS ONE, 2015).
